Data reported in publication PMC2602735.
Results are given in words; binding and its absence hold for the method and conditions named. Some binding calls cover weakened binding; strength is not graded here.

Amino acid sequences for entries named in this document (tags omitted). Residues count along the entry.
UniProt Q03591, residues 19-330: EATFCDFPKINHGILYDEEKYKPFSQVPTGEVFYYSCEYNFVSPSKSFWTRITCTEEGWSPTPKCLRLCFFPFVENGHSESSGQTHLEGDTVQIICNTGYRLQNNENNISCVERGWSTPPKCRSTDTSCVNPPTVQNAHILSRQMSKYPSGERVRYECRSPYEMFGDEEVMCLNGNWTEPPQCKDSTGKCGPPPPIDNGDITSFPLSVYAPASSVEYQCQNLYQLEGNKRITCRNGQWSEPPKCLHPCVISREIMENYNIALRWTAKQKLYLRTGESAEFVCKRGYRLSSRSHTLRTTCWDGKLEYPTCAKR
UniProt P08603, residues 19-1231: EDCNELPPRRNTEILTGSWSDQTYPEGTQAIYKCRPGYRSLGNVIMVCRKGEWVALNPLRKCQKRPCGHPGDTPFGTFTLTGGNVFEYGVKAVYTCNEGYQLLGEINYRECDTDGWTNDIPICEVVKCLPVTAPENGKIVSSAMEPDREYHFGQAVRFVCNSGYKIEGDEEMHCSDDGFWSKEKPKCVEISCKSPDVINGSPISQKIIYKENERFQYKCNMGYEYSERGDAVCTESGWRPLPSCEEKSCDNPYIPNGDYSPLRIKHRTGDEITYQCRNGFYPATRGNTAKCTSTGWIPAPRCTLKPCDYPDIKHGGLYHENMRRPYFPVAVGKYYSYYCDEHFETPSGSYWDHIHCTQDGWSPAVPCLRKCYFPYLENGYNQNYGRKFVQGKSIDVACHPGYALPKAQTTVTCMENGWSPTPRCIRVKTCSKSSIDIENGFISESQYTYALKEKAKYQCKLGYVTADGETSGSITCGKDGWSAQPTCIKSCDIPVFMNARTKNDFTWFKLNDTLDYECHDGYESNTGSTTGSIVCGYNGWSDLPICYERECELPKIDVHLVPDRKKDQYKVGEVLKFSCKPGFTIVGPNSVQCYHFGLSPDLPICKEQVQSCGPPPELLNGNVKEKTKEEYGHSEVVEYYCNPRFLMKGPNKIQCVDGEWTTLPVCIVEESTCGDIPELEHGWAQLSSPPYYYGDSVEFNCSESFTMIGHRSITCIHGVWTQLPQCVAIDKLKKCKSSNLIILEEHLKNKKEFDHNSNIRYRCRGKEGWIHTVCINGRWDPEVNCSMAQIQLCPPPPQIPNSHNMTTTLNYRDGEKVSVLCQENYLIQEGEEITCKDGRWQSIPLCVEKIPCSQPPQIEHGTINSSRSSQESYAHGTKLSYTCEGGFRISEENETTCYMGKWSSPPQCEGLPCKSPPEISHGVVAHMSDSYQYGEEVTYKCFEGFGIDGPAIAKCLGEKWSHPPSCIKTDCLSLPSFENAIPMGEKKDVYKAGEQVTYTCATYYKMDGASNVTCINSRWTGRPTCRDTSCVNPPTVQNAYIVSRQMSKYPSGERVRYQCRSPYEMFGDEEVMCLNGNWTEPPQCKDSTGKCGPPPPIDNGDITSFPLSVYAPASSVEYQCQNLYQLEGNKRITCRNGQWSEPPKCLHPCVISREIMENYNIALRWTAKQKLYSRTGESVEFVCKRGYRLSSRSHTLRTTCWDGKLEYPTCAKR

Tests used:
[1] = target: Sbi-E (amino acids 28–266) (Staphylococcus aureus (entry printed for strain Newman)) (UniProt A6QJQ7); experiment: combined ELISA and Western blot approach (CEWA); only the target purified
[2] = target: Sbi-I (amino acids 42–94) (Staphylococcus aureus (entry printed for strain Newman)) (UniProt A6QJQ7); experiment: as above
[3] = target: Sbi-IV (amino acids 197–266) (Staphylococcus aureus (entry printed for strain Newman)) (UniProt A6QJQ7); experiment: as above
[4] = target: Sbi-I (amino acids 42–94) (Staphylococcus aureus (entry printed for strain Newman)) (UniProt A6QJQ7); experiment: combined ELISA and Western blot approach (CEWA); both purified
[5] = target: Sbi-I (amino acids 42–94) (Staphylococcus aureus (entry printed for strain Newman)) (UniProt A6QJQ7); experiment: SPR; Biacore 3000; Sbi-E, Sbi-I or Sbi-III/IV immobilized; Factor H in combination with C3b or C3d as analyte, identical concentrations; both purified
[6] = target: Sbi-I (amino acids 42–94) (Staphylococcus aureus (entry printed for strain Newman)) (UniProt A6QJQ7); experiment: combined ELISA and Western blot approach (CEWA); Sbi constructs, CRASP-1, CRASP-5 (10 µg/ml) immobilized; Factor H (5 µg/ml) together with C3b (10 µg/ml) or C3d (2,6 µg/ml), over night at 4°C; eluted, Western blot for Factor H; both purified

| Substance | binding [1] | binding [2] | binding [3] | binding [4] | binding [5] | binding [6] |
| --- | --- | --- | --- | --- | --- | --- |
| Factor H related protein 1 (FHR-1) (from UniProt Q03591 19-330) | binds | no binding (tested: NHS diluted 1∶10) | binds | – | – | – |
| complement Factor H (from UniProt P08603 19-1231) | – | no binding (tested: NHS diluted 1∶10) | – | no binding (tested: 5 µg/ml) | no binding | no binding (tested: 5 µg/ml) |
